{"source": "PubChem BioAssay AID463173", "about": "(ICCB-Longwood Screening Facility, Harvard Medical School, 2010)", "note": "Out of some 52,000 compounds screened, about 1,700 (3.3%) were called active. Cut-off read from the data, not from the text of the source: active = survival mostly below about 52% (no sharp cut-off); inactive = mostly above about 56%. Some of the results follow.", "data": [{"system": "Wild type", "experiment": "S. aureus survival, RN4220 and DeltatarO strains – OD600, teichoic acid synthesis inhibitors, primary screen (AID 463173)", "settings": "S. aureus RN4220 wild type/DeltatarO growth, OD600, 18 h, stronger effect = lower value, screened at 18.75 µg/mL (by protocol)", "values": [{"smiles": "Cc1ccc(-c2nc3cc(Cl)ccc3o2)cc1NC(=O)c1cc([N+](=O)[O-])ccc1N1CCOCC1", "survival": "inactive: 99%"}, {"smiles": "CC(=O)NC1CC(=O)N(c2ccc3c(c2)OCCO3)C1", "note": "(configuration not stated)", "survival": "inactive: 66%"}, {"smiles": "Cc1nc(-c2ccccc2)sc1-c1ccc(SCC(=O)Nc2cccc(C(F)(F)F)c2)nn1", "survival": "inactive: 67%"}, {"smiles": "CCC(=O)N1CCc2cc(Br)cc(S(=O)(=O)N3CCC(C(=O)Nc4ccccc4CC)CC3)c21", "survival": "inactive: 89%"}, {"smiles": "COc1ccc(NC(=O)CSCC(=O)O)cc1", "survival": "inactive: 102%"}, {"smiles": "COc1cccc(C2CC(=O)Nc3cc4c(cc32)OCO4)c1OC(C)C", "note": "(configuration not stated)", "survival": "inactive: 91%"}, {"smiles": "O=C1c2ccccc2C2(c3ccccc3)NCCCN12", "note": "(configuration not stated)", "survival": "inactive: 111%"}, {"smiles": "CC(C)Oc1ccc(CNC(=O)C2CCN(c3nc4ccccc4nc3C(F)(F)F)CC2)cc1", "survival": "inactive: 88%"}, {"smiles": "CCOc1cc(C(=O)Nc2ccncc2)cc(OCC)c1OCC", "survival": "inactive: 100%"}, {"smiles": "COc1cc(OC)c(NC(=O)C2CCN(C(=O)c3sc4nc[nH]c(=O)c4c3C)CC2)cc1Cl", "survival": "inactive: 117%"}, {"smiles": "CCOC(=O)C1CCN(C(c2cccc(F)c2)c2c(O)cc(C)n(Cc3ccco3)c2=O)CC1", "note": "(configuration not stated)", "survival": "inactive: 132%"}, {"smiles": "COCCCNC(=O)c1cnc2c(-c3ccc(F)cc3)c(C)nn2c1C", "survival": "inactive: 134%"}, {"smiles": "Cn1nc(-c2ccccc2F)c2cc(C(=O)NCCc3ccc(Cl)cc3)sc21", "survival": "inactive: 83%"}, {"smiles": "CCOc1cccc(C(=O)N2CCC(c3nc4ccccc4s3)CC2)c1", "survival": "inactive: 86%"}, {"smiles": "COc1ccc(-c2noc(N(c3cccc(Cl)c3)c3nc(-c4ccc(OC)c(OC)c4)no3)n2)cc1OC", "survival": "inactive: 164%"}, {"smiles": "O=C(c1ccc(Br)cc1)N1CCN(CCc2ccncc2)CC1", "survival": "inactive: 89%"}, {"smiles": "CN(C)c1ccc(CNC(=O)c2cnc3sc(N4CCOCC4)nn3c2=O)cc1", "survival": "inactive: 94%"}, {"smiles": "CCOc1ccc(-c2nc(SCC(=O)c3ccccc3)n[nH]2)cc1", "survival": "inactive: 154%"}, {"smiles": "CC(=O)c1ccc(NC(=O)CSc2ccc(-c3cccs3)nn2)cc1", "survival": "inactive: 133%"}, {"smiles": "Cc1ccc(S(=O)(=O)Cc2ccc(C(=O)NCCc3ccc(Cl)cc3)o2)cc1", "survival": "inactive: 79%"}, {"smiles": "Brc1cccc(-c2nnc(CN3CCN(c4ccccn4)CC3)o2)c1", "survival": "inactive: 79%"}, {"smiles": "CCOC(=O)c1c(NC(=O)c2ccc(S(=O)(=O)N3CCC(C)CC3)cc2)sc2c1CCN(CC)C2", "survival": "inactive: 71%"}, {"smiles": "CCn1c(C)nnc1SCC(=O)Nc1cccc(Cl)c1", "survival": "inactive: 99%"}, {"smiles": "Cc1cccc(-n2cc(-c3ccccc3)c3c(NC4CCCC4)ncnc32)c1", "survival": "inactive: 120%"}, {"smiles": "C=Cc1ccc(Cn2nc(-c3ccc(C)cc3)ccc2=O)cc1", "survival": "inactive: 57%"}, {"smiles": "CCOC(=O)c1cc(C)n(CC2CCC(C(=O)Nc3cccc(C)c3)CC2)c1C", "note": "(configuration not stated)", "survival": "inactive: 73%"}, {"smiles": "Cc1cc(C)nc(NC(=NCCc2c[nH]c3ccc(Cl)cc23)NC(=O)c2ccccc2C)n1", "survival": "inactive: 86%"}, {"smiles": "COC(=O)C1=C(C)NC(=O)C1(NC(=O)c1cc(OC)c(OC)c(OC)c1)C(F)(F)F", "note": "(configuration not stated)", "survival": "inactive: 70%"}, {"smiles": "CCOC(=O)c1c(S(=O)(=O)N2CCCC(C(=O)Nc3cc(C)ccn3)C2)c(C)n(C)c1C", "note": "(configuration not stated)", "survival": "inactive: 75%"}, {"smiles": "COc1ccc(CCN2C(=O)C3C(C(=O)Nc4cc(C)on4)C4(C)C=CC3(O4)C2C(=O)NC2CCCCC2)cc1", "note": "(configuration not stated)", "survival": "inactive: 116%"}, {"smiles": "COc1ccc(OC)c(NC(=O)C2CCN(S(=O)(=O)c3ccc4c(c3)CCCC(=O)N4)CC2)c1", "survival": "inactive: 63%"}, {"smiles": "CCOC(=O)c1ccc(NC(=O)CCC(=O)N2Cc3ccccc3Oc3ncccc32)cc1", "survival": "inactive: 101%"}, {"smiles": "O=C(O)CCCn1cnc2ccccc2c1=O", "survival": "inactive: 114%"}, {"smiles": "O=C(NC1CCCCC1)c1ccc(CSc2nc3cccnc3n2Cc2ccc(F)cc2)cc1", "survival": "inactive: 19%"}, {"smiles": "Cc1cccc(-n2c(Cc3ccccc3)nnc2SCc2nc(-c3cccs3)no2)c1", "survival": "inactive: 63%"}, {"smiles": "O=C1c2[nH]nc(-c3ccccc3O)c2C(c2ccccc2F)N1Cc1cccnc1", "note": "(configuration not stated)", "survival": "inactive: 94%"}, {"smiles": "Cc1ccc2cc(C#N)c(NCCNC(=O)Nc3ccccc3C)nc2c1", "survival": "inactive: 117%"}, {"smiles": "O=C1CC(c2nnc(Cc3ccc(F)cc3Cl)o2)CN1c1ccccc1", "note": "(configuration not stated)", "survival": "inactive: 110%"}, {"smiles": "O=C(CN1C(=O)COc2ccc(S(=O)(=O)N3CCCC3)cc21)N1CCN(c2ccc(F)cc2)CC1", "survival": "inactive: 93%"}, {"smiles": "O=C(NCc1ccco1)C1CCN(S(=O)(=O)Cc2ccccc2)CC1", "survival": "inactive: 108%"}, {"smiles": "COCCNc1ccc(-c2nc(-c3ccco3)no2)cc1[N+](=O)[O-]", "survival": "inactive: 79%"}, {"smiles": "CCOC(=O)c1ccc(N2C(=O)c3n[nH]c(-c4ccco4)c3C2c2ccc(O)c(OCC)c2)cc1", "note": "(configuration not stated)", "survival": "inactive: 67%"}, {"smiles": "Cc1cccc(Nc2nnc(-c3ccc(C)c(S(=O)(=O)NCC4CCCO4)c3)c3ccccc23)c1", "note": "(configuration not stated)", "survival": "inactive: 81%"}, {"smiles": "COC(=O)c1ccc(NC(=O)CN2C(=O)CCc3cc(S(=O)(=O)N4CCCCC4)ccc32)cc1", "survival": "inactive: 74%"}, {"smiles": "Cc1[nH]c(=O)[nH]c(=O)c1S(=O)(=O)N1CCN(c2ccccc2Cl)CC1", "survival": "inactive: 67%"}, {"smiles": "O=C(O)CCn1c(=O)c2cccn2c2cccnc21", "survival": "inactive: 85%"}, {"smiles": "COc1ccc(S(=O)(=O)NCC(c2ccco2)N2CCN(c3ccccc3)CC2)cc1OC", "note": "(configuration not stated)", "survival": "inactive: 80%"}, {"smiles": "CCOC(=O)c1cc(-c2ccccc2)n(CCCC(=O)Nc2cccc(C)c2C)c1C", "survival": "inactive: 136%"}, {"smiles": "N#Cc1ccccc1Cn1c(=O)n(-c2cccc(C(F)(F)F)c2)c(=O)c2sccc21", "survival": "inactive: 85%"}, {"smiles": "CCN1CCN(C(=S)NCC2CCCO2)CC1", "note": "(configuration not stated)", "survival": "inactive: 96%"}, {"smiles": "CCc1ccc(NC(=O)CC2C(=O)N(c3ccc(Cl)cc3)C(=O)N2Cc2ccco2)cc1", "note": "(configuration not stated)", "survival": "inactive: 81%"}, {"smiles": "CCc1ccccc1Nc1nn2c(=O)c3ccc(C(=O)NC(C)c4ccccc4)cc3nc2s1", "note": "(configuration not stated)", "survival": "inactive: 69%"}, {"smiles": "COc1cc2[nH]c(=O)n(CCCC(=O)NCc3ccc(Cl)cc3)c(=O)c2cc1OC", "survival": "inactive: 90%"}, {"smiles": "Cc1ccc(NC(=O)C(=O)NCC(c2cccnc2)N2CCN(c3ccccc3F)CC2)cc1Cl", "note": "(configuration not stated)", "survival": "inactive: 99%"}, {"smiles": "COc1ccccc1NC(=O)c1sc2nc(C)c(C(=O)Nc3ccc(C)cc3C)c(-c3cccs3)c2c1N", "survival": "inactive: 93%"}, {"smiles": "Cc1cccc2sc(N(Cc3cccnc3)C(=O)c3cccs3)nc12", "survival": "inactive: 70%"}, {"smiles": "CCc1ccc(CN2CCc3nc(Nc4ccccc4)ncc3C2)cc1", "survival": "inactive: 69%"}, {"smiles": "CCOc1cc2[nH]c(=O)n(CCCCC(=O)N3CCN(c4cccc(Cl)c4)CC3)c(=O)c2cc1OCC", "survival": "inactive: 58%"}, {"smiles": "CCOC(=O)c1c(C)[nH]c(CCC(=O)NCc2ccc(F)cc2)c1C", "survival": "inactive: 72%"}, {"smiles": "CC(=O)Nc1ccc(NC(=O)c2cc3sccc3n2Cc2ccc(F)cc2)cc1", "survival": "inactive: 160%"}, {"smiles": "CC(C)(C)C1CCc2c(sc3nc(-c4cc5cc(Br)ccc5oc4=O)[nH]c(=O)c23)C1", "note": "(configuration not stated)", "survival": "inactive: 86%"}, {"smiles": "Cc1ccccc1OCC(=O)Nc1ccc2nc(SCC(=O)N3CCc4ccccc43)sc2c1", "survival": "inactive: 82%"}, {"smiles": "Cc1cccc(N2CCN(S(=O)(=O)c3ccc(-c4cc(C(F)(F)F)on4)s3)CC2)c1C", "survival": "inactive: 73%"}, {"smiles": "O=C(C1CCCN(S(=O)(=O)c2ccc(Br)s2)C1)N1CCN(c2cccc(Cl)c2)CC1", "note": "(configuration not stated)", "survival": "inactive: 73%"}, {"smiles": "COc1cccc(CC(=O)Nc2ccc(-c3nc4ccccc4s3)cc2)c1", "survival": "active: -3%"}, {"smiles": "COc1ccccc1C1Nc2c(sc3nc(C)cc(C)c23)C(=O)N1c1ccccc1", "note": "(configuration not stated)", "survival": "inactive: 74%"}, {"smiles": "COc1cccc(C2C(C(=O)Nc3ccc(Cl)cc3)=C(C)Nc3nc4ccccc4n32)c1", "note": "(configuration not stated)", "survival": "inactive: 82%"}, {"smiles": "CCC(C)Sc1oc(-c2ccco2)nc1S(=O)(=O)c1ccc(C)cc1", "note": "(configuration not stated)", "survival": "active: -12%"}, {"smiles": "CCc1nnc(NC(=O)CN2CCN(c3ccccc3)CC2)s1", "survival": "inactive: 98%"}, {"smiles": "COc1ccc(OCC(=O)Nc2cc(-c3nc4ccccc4s3)ccc2C)cc1", "survival": "inactive: 72%"}, {"smiles": "COc1ccc2c(c1)c1c(c(=O)n(-c3ccc(C)cc3)c(=O)n1CC(=O)NCc1ccc(C)cc1)n2C", "survival": "inactive: 70%"}, {"smiles": "COc1ccc(Cl)cc1NC(=O)c1nnn(Cc2cccc(C(F)(F)F)c2)c1N", "survival": "inactive: 142%"}, {"smiles": "Cc1cc2c(cc1C)NC(CC(=O)Nc1cccc(Cl)c1)C(=O)N2", "note": "(configuration not stated)", "survival": "inactive: 98%"}, {"smiles": "NS(=O)(=O)c1ccc(CCNC(=O)Cn2c(-c3cccs3)cc3ccccc32)cc1", "survival": "inactive: 153%"}, {"smiles": "CCN(CC)c1ccc(NC(=O)CCc2nc3cccnc3n2Cc2cccs2)c(C)c1", "survival": "inactive: 73%"}, {"smiles": "O=C(NCC(c1ccc2c(c1)OCO2)N1CCOCC1)C(=O)Nc1ccccc1", "note": "(configuration not stated)", "survival": "inactive: 88%"}, {"smiles": "C=CCc1cccc2cc(C(=O)NCCc3c(C)[nH]c4c(C)cccc34)c(=O)oc12", "survival": "inactive: 83%"}, {"smiles": "C=CCN1CCN(C(c2ccccc2)c2nnnn2CCC(C)C)CC1", "note": "(configuration not stated)", "survival": "inactive: 99%"}, {"smiles": "CNc1ccc(-c2nc(-c3ccco3)no2)cc1[N+](=O)[O-]", "survival": "inactive: 83%"}, {"smiles": "CC(=O)Oc1cccc(NC(=O)CC2SC(N)=NC2=O)c1", "note": "(configuration not stated)", "survival": "inactive: 104%"}, {"smiles": "Cc1ccccc1NC(=O)c1ccc2c(O)c(S(=O)(=O)c3ccccc3)c(=O)[nH]c2c1", "survival": "inactive: 88%"}, {"smiles": "CCOC(=O)N1CCC(NC(=O)c2cnn(-c3ccc(F)cc3F)c2C2CCN(C(=O)OC(C)(C)C)CC2)CC1", "survival": "inactive: 82%"}, {"smiles": "CC(C)NC(=O)c1cc(-c2ccccc2)on1", "survival": "inactive: 87%"}, {"smiles": "Cc1ccc(S(=O)(=O)Nc2cc3c(cc2C)n(C)c(=O)c(=O)n3C)c(C)c1", "survival": "inactive: 64%"}, {"smiles": "Cc1cc(C)cc(Nc2cc(C(=O)NC3CCC(C)CC3)c3ccccc3n2)c1", "note": "(configuration not stated)", "survival": "inactive: 125%"}, {"smiles": "COc1ccc(CCNC(=O)c2c(C)oc3ncnc(N4CCOCC4)c23)c(OC)c1", "survival": "inactive: 75%"}, {"smiles": "O=C(Cn1c(=O)c(C(F)(F)F)nc2ccccc21)Nc1cccc(Br)c1", "survival": "inactive: 124%"}]}]}
